Test results as given in the supplement of paper PMC12632987.
The full ranking holds about 2,300 sequences; the median of “median log2 fold change of GCK-ALFA target abundance (FLAG IP / Myc IP barcode read proportion)” is about 0.095, and the lowest 2% start at about -0.47. This is one part of the list.

B1: LC3A_128_225 (protein)
chain: SEKVEDLIESLERALEDLKKLATTPELQKLLAEAEKKLEELKKLVKEGASKEEIIKQATELLKIVKEFLELARKKGVPDTVALNAAEIDLAEAEEELEEI
B2: LC3A_28_1223 (protein)
chain: SHVDAEIAAARAQLEAAKAAGEEALVTVTITKDTTVEDARRMMEEIERMVAEAADLPAISIIIDFEAGVSQEVIDTAIELGERIEEKYPNVTVLFALDEE
B3: LC3A_147_435 (protein)
chain: WRAVVDISILTKNAKEEVLAALEALVAELRAQGYEVELEIEVEELENGVVFIDATITVRAETREEAEAAADFVVDRIDEIEEKLKDKILGSIISRSIEEE
B4: LC3A_free_26_2156 (protein)
chain: EEFLDIYSIDRAEEKLEEALKLAEETEGIPEELKELIKQAIEEVKKETLESLEKAIELLEEALKLVEELPEELKEEAEKLKKLLEEAIEELKENVKIMKE
B5: LC3A_17_547 (protein)
chain: KEEIKKKLEELLKELKKLVEKLKPYDPEAAKKLEKELKKAEKLLKAGKLKEAAEALIKAAREAADAWEELEPEKGVEASVLAMEANGIEIEAIGLLLKLE
B6: LC3A_147_408 (protein)
chain: YVTEVIIDILTKDAEEEVIARFKEIKKELEAKGYKVELKIEVEKLENGVTYIEVTIKVEAETEEEAKEAADFVLDKIDELEEELKDKILGSLISVEISEA
B7: LC3A_28_936 (protein)
chain: MTVEERIEEALAKAREAAEAGEPVVITITVTKDDTQEEVEKIIEAIREIAEILKDVKGAAIIVDVEAGVPQERVDKIADELEKIEKEYPNINAILALDED
B8: LC3A_28_1163 (protein)
chain: SKTRKSIEEALKEAKEAAAAGEPKAIVLEVEGGITEEETEEVIEALYEIAELLADVEGSAIVINVSSGVSQENLDKIMDAAEEIEERYPNVTVIIALDED
B9: LC3A_3_1458 (protein)
chain: IEKAKKEAEKILKENGADEETIKAALKLLDALAKKGYEKAIERVIEELKKMKNVPSEILLDMFEELLEIVETEDLSEEEVIKKIDEEAAAAKAEAEIEEL
B10: LC3A_3_1872 (protein)
chain: MEEELKETIEALKKAGASEETIKLFRENMELLKERGYEEAAKTLIEETRKLLDAPSELLLEFAEDVLELLKTEDLSEEELIERIKEIARLTRNEAEIIEL
B11: LC3A_28_1256 (protein)
chain: SALEENLERALAEVREAVERGEEAVVTITVPAGVTEEQVEQVIETMEEIAELSKSLPRTTIIVDVEAGVAQEHIDQLIDKGEELEEKYPNLTVIFALEEE
B12: LC3A_free_46_2420 (protein)
chain: MTLDIDIDVLAKTEETAKAVAKELTKTLEDTAKELGVKVEIKVEIEKLEDGTYYVHIDATFTGVTEEQAQQIEDKVIDKVEELEKKYPEILGSIISSELE
B13: LC3A_147_412 (protein)
chain: MEVEIDILVKSEEAVEKVKEAFEETVEELREKGFEVELEIEVEEIEPGVYYVEVRIRIKAETEEEAKEAANYVLDAIDELEEELKDEILGSLISVTLEKE
B14: LC3A_132_270 (protein)
chain: SSELLEKALEELFAILDKIVELLVAGKDPWPAIKELDKKAKEYAKKLSLEDTEELVDKSKAYAAELFAARVDPNDAEARRVLDHIEMLLDSVLIEKELAS
B15: LC3A_3_1823 (protein)
chain: MEEEIEELIKLLKEAGHSEETIEAVKETIEALLEKGYEEAAKTFIELMKEMIHLPSELLLELAKDVKELVESEDLSEEELTEKIKELAKLYKNESEIEEL
B16: LC3A_3_1707 (protein)
chain: GEELLEEARKVLEEHGKSEETIEAALEALKALLERGFEEAAEELLELLKEAENLSDEILLWFFEDVKAVVARPDLTEEEVIAEIRRLWQTAKNDEEIEEL
B17: LC3A_free_8_2467 (protein)
chain: SSQEVVDTVTDGLDKLEEEVEKKAKELGLSELDILDLELLIGSVIADVISNSDKSVEEIRKTFEEGMEEVIEEAEKLSPELAELVRKGREEILKKLEELE
B18: LC3A_free_8_2443 (protein)
chain: SKQEIVDTALEKLEELEEWVREKAKELGLPEIDILELELLIGSAISEIISNSDKSPEEILKTTKESLEEIVEEAKKISEELAKEVKEKAEEILKELEKLL
B19: LC3A_3_1844 (protein)
chain: LEEAVAAALAELRAAGHSDETLAAVRETAEALAARGYEEALKTFIELMRELVHLPSELLLALAEDVLAYLKTNDASEAEVKEYIKEEARLYRNEAEIEEL

Each binder was assayed against MAP1LC3A, Q9H492 (assay: median log2 fold change of GCK-ALFA target abundance (FLAG IP / Myc IP barcode read proportion) (log2 ratio); each designed protein is fused to an ALFA-tag nanobody in HEK293 cells to bring the named protein to FLAG-tagged glucokinase (GCK); Myc marks an untargeted standard; higher = target protein stabilised (more abundant)). Conditions: target protein: 3xFLAG-MCP-GCK-ALFA reporter; HEK293 landing pad (RPLP).
How it was run: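 HEK293 landing-pad cells received a recombined binder library fused to the ALFA nanobody and were induced with 2 μg mL^−1 doxycycline, then transfected with a plasmid encoding a FLAG-tagged target and a Myc-tagged standard. Lysates were collected after 48 h for anti-FLAG and anti-Myc immunoprecipitation, and the circular RNA barcodes were reverse transcribed, amplified and sequenced. Target abundance for each binder is the median log2 ratio of FLAG to Myc barcode read proportions. Barcodes had to reach a proportion of at least 10^−7 in both replicates, each binder needed at least 3 barcodes per replicate, a pseudocount of 10^−6 was applied, and the two replicates were pooled.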

Binder	median log2 fold change
B1	0.227
B2	-0.219
B3	0.0484
B4	0.448
B5	0.0461
B6	-0.171
B7	0.153
B8	-0.0192
B9	-0.00536
B10	0.135
B11	-0.127
B12	-0.177
B13	-0.156
B14	0.22
B15	0.448
B16	0.207
B17	-0.0709
B18	0.241
B19	0.167
